From the supplement of paper PMC10126150
Values marked as one replicate rest on one cluster of the flow cell; about a third of the high ones do not repeat.

System: ATP
Assay: switch fluorescence ratio, 500 uM ATP over buffer (Cy3 cluster intensity, sum of 5 cycles each) (fold (ratio)); higher = stronger signal-on switching upon ATP binding; sequences stand for … in TCGTCGGCAGCGTCAGATGTGTATAAGAGACAGTTTTTTTTTTTTTTTTTTTTTTTTT…TC
Settings: aptamer strand: ATP DNA aptamer (quencher-CACCTGGGGGAGTATTGCGGAGGAAGG + anchor), 100 nM annealed; ATP concentration: 500 uM; one replicate
Procedure, shortened: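 The fluorescence ratio divides summed target-cycle Cy3 intensity by summed buffer-cycle Cy3 intensity for each cluster and is averaged per switch-domain sequence. Cy3-labelled switching-strand clusters on a modified Illumina MiSeq flow-cell were annealed to 100 nM quencher-labelled ATP aptamer, then imaged in selection buffer and again after 15 min with 500 uM ATP at 22 °C. Five such cycles were run, with NaOH stripping and re-annealing between them, and clusters outside 100-1000 RFU were excluded.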
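Note: ATP exposure 15 min at 22 °C before imaging.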

| Sequence | switch fluorescence ratio |
| --- | --- |
| TCATTGGTCC | 1.16 |
| GCTTTAGATC | 1.01 |
| TGCGGTACTT | 1.11 |
| GCTTAGGCGA | 0.967 |
| TTTCATGCTG | 0.949 |
| TATGCGCCTG | 0.933 |
| AGAAGAGCAT | 1 |
| GGGTCGAAGG | 0.912 |
| GGCCTCCTGC | 1.05 |
| ACAGTTTTA | 1.04 |
| AACGGTCAAT | 1.1 |
| AGGTTAGTAT | 0.991 |
| AGCAGTTCCC | 1.29 |
| TTATCTAAAC | 1.16 |
| TTTAAGATTG | 0.948 |
| TTGGTTCTTG | 1.01 |
| GTTCCCATGC | 1.27 |
| TGTAGTGGGG | 0.998 |
| TGCATATCGC | 1.04 |
| AATTGACAGG | 1.06 |
| ATGTTAACAA | 0.972 |
| ATTCCTGAAA | 0.981 |
| CCAATTATCA | 1.02 |
| TGGGCGATGG | 0.991 |
| GGATTCCCTG | 1.02 |

| Sequence | switch fluorescence ratio |
| --- | --- |
| GGTGGAAGGT | 1.01 |
| AGAAGTGTAG | 1.08 |
| TCTTCTTGTC | 0.981 |
| CCATGAATTC | 0.973 |
| TCAAAAATAA | 1.01 |
| TGATGATGGC | 0.999 |
| GGTCGGGAAT | 0.997 |
| TTAACTAGTT | 1 |
| AGATATCACC | 1.04 |
| CTCAGTCATT | 1.05 |
| TAGTACAGTG | 1.01 |
| GGCGACGTAT | 1.02 |
| ATCACGGTTT | 1.01 |
| GGGGGGATT | 1.03 |
| TCTTAGGGG | 1.01 |
| GATTATCTGC | 1.02 |
| GTAGTACCCG | 0.937 |
| AATTCATGGG | 0.99 |
| GTTGGGTTGA | 0.95 |
| TATCCCCTGG | 1.61 |
| CCCAATTAGA | 1.01 |
| CTTTAGTGGG | 1.03 |
| ACAGTTGGTG | 1.03 |
| CGTACGGGAT | 0.977 |
| AATTTGTCTG | 0.986 |

| Sequence | switch fluorescence ratio |
| --- | --- |
| CTATGCTTCT | 0.993 |
| AAGTTCTTTT | 1.02 |
| CTAGCCGTAT | 0.883 |
| ATGTAATTCT | 1.01 |
| GGAGTTGAA | 0.958 |
| GCGGAAACGT | 1.09 |
| TGTCGCCGGT | 1 |
| AGTCGAGTTT | 0.977 |
| AGGCAATAAG | 1.12 |
| GGGCTGACAT | 1 |
| CGGCCAGCGC | 1.04 |
| GATCAATGGC | 0.936 |
| GCGACGACCT | 1.27 |
| AATGGGCGGC | 1.01 |
| ATGACTAACG | 1.18 |
| GCGATGCGTA | 1.06 |
| AGGGCGAATG | 0.955 |
| TTCGTCCAAT | 1.08 |
| TCCTATATCT | 1.08 |
| CGTGAGATTC | 0.999 |
| TTGACCGGCG | 1.12 |
| GCTTGTTATT | 0.982 |
| GAAGGTCATA | 1 |
| GTGAAATGGC | 0.914 |
| GATCACACTC | 1 |

| Sequence | switch fluorescence ratio |
| --- | --- |
| AAAAGCTGGA | 1.02 |
| GGAACTATTA | 1.02 |
| CCAGGAGGTG | 1.34 |
| TAATTAAAAA | 0.993 |
| TCTCAATAGG | 1.02 |
| ATAAGATTGG | 1.02 |
| TAGGGGATGG | 0.998 |
| GCTGTGATTG | 1.02 |
| CCCACTTACA | 1.33 |
| CTGTGGTTGC | 1.04 |
| ACTGCCTCAA | 0.97 |
| CGACCTTCCG | 2.86 |
| TCCTTGTGAA | 1.03 |
| CTATGATCG | 0.94 |
| TACAGATTGT | 1.05 |
| TTGTTGGACT | 0.948 |
| ATGGGTCGC | 0.97 |
| TCCTATCCAT | 1.04 |
| GCTGCATGGG | 1.06 |
| CTCAGTAGG | 1.06 |
| CTAAACTAAG | 1.04 |
| TGAGGTACA | 1 |
| CGTGAAGGAG | 0.967 |
| GAGTGCCAAC | 0.949 |
| CGCCTCTGAC | 1.3 |

| Sequence | switch fluorescence ratio |
| --- | --- |
| TTAGCATCCT | 1.1 |
| TCAATCAATG | 0.982 |
| AATGGAGTCC | 0.986 |
| TTGATCAAT | 1.01 |
| GAGGGATAGG | 0.953 |
| ATATGGCTTG | 1.01 |
| ATGTGTCGAT | 1.04 |
| CCTGTACAT | 1.03 |
| CCCAACGGCC | 1.06 |
| AGTCTGTCCA | 1.01 |
| CTCTGAAGGG | 1.04 |
| TCGAAGTCTC | 1.12 |
| GACTACGGGG | 1.11 |
| TTTCTGACAT | 0.992 |
| TTTACTTTAA | 1.1 |
| GAAGGATACA | 1.04 |
| CTCTAACCTA | 1.03 |
| ATCTCCGTGT | 1.12 |
| TCGATTATGT | 1.02 |
| CTACCAACAG | 1.1 |
| TGAGCATCAT | 0.969 |
| GAAAATAAGT | 1.02 |
| TATGCACGTG | 1.02 |
| GGGCCCCGGT | 1.04 |
| TCGAATCGG | 1.01 |

| Sequence | switch fluorescence ratio |
| --- | --- |
| TTATTCAAGT | 1.01 |
| ACACGGCTAC | 1.91 |
| TGTTGGAAGT | 0.938 |
| GCTTGGCGCA | 0.975 |
| CGTGACCATA | 1.15 |
| AGCAACGCGG | 1.05 |
| AAGAGGCTAT | 1.01 |
| TGGATTGAG | 1.02 |
| AGAGGTTGTG | 1 |
| AGTTGACGTG | 0.951 |
| ATTGTTGTAT | 0.967 |
| ATTGTGTCCC | 1.02 |
| CCAAAACTTT | 0.98 |
| TGTGTAGCCG | 0.982 |
| ACTTTTGGTG | 1.04 |
| ACGCCCGCGT | 1.02 |
| TCGTGAGCGT | 1.7 |
| TTCACGGTCA | 1.04 |
| CAAGTATCTC | 0.999 |
| TTCGCGGATT | 1 |
| GAGGTCACTT | 1.01 |
| CAGAGGAACA | 1 |
| GCAACAATTG | 0.979 |
| AGTCGGTCGA | 0.978 |
| CCTTGCTTTT | 3.24 |

| Sequence | switch fluorescence ratio |
| --- | --- |
| GCGCGTGGGC | 1.01 |
| CGCAGGGTTT | 1.07 |
| CGGGGACATC | 1.01 |
| AAAGGCAGCG | 1.08 |
| TGCGGCGTCC | 1.03 |
| TTGTGTAAGT | 1.01 |
| TTTGGGAGAA | 0.962 |
| ACGTAGCAGT | 4.56 |
| TACGGATGGG | 1.03 |
| GAACGTACAC | 1.84 |
| CAGTGAGAGC | 0.95 |
| ATAGGGAAGG | 0.94 |
| AACCCGCCGG | 1.02 |
| GTGCCTTCCG | 2 |
| GTGTCTATAG | 0.993 |
| TGAGGCCCGT | 0.956 |
| TTACAAGCTC | 1.1 |
| ACGGGTCTAG | 1.01 |
| TCACTGTGGA | 0.991 |
| ATGCGGGCTA | 1 |
| GGTCTAGAGC | 1.02 |
| GCTCCAGCGC | 1.88 |
| TAGGGCATTA | 1.11 |
| TACGTCTGAA | 0.996 |
| AATCTTAGTC | 0.989 |

| Sequence | switch fluorescence ratio |
| --- | --- |
| GCTAAAAAG | 1 |
| CTGATGCTCG | 1.02 |
| CCCATATTGC | 1.03 |
| TTAAGCCGAA | 1.03 |
| CGAATATGTA | 1.02 |
| GATTAGCGGG | 1.01 |
| CGTTTAAAGT | 0.989 |
| AGGGGTCCAA | 0.974 |
| ATATACGGCG | 1.02 |
| GATTGAGATC | 1 |
| GCGACCGCCG | 1.06 |
| GGTGTTTGAA | 0.972 |
| CTGATGTTCG | 0.995 |
| TACTTTGGTA | 1.12 |
| GCTACAAGGT | 1 |
| ATCGTCTACA | 1 |
| TTTTAATATG | 0.986 |
| TATTGTGTAG | 1.01 |
| GGTGAAGACG | 0.991 |
| ACGATTTAC | 1.67 |
| ATCCCTTAG | 1.24 |
| GGTAGAGGTG | 1.05 |
| GAAAACTTGC | 1.14 |
| AGCATATATT | 1.12 |
| CGAGGGATCC | 1.03 |
